In patent publication US20250000993A1, “ANTI-HUMAN CD33 BET DEGRADER ANTIBODY-DRUG CONJUGATES” (AbbVie Inc., priority 2023, published 2025):

Key:
[1] = target: CD33-expressing HEK-293 cells (Homo sapiens, UniProt P20138); experiment: Flow cytometry (FACS titration) binding to CD33-expressing HEK-293 cells; conditions: 4° C. for 2 hours
control HEK-293 cells = experiment: Flow cytometry (FACS titration) binding to control HEK-293 cells; conditions: 4° C. for 2 hours

Sequence of CD33-expressing HEK-293 cells (P20138 18-364): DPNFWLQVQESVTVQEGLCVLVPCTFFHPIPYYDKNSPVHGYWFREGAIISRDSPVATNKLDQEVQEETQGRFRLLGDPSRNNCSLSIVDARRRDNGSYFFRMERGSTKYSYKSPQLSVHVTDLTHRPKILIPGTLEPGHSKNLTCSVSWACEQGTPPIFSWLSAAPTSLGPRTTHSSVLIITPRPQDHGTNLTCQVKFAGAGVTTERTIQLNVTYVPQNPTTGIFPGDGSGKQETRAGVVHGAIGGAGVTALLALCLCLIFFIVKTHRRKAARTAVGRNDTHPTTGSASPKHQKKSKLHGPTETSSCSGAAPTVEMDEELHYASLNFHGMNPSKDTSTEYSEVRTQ

B1: mAb1: recombinant, humanized, IgG1 kappa monoclonal antibody that binds to CD33; heavy chain SEQ ID NO: 9 or 10 (Y296C, N297A), light chain SEQ ID NO: 11 (antibody)
heavy: EVQLVESGGGVVQPGRSLRLSCAASGFTLSDYAMAWVRQAPGKGLEWVATISYDAGRTYYRD[sequence of about 20 residues not given]MNSLRAEDTAVYYCERPPGVYYGSYWGQGTMVTVSSASTKGPSVFPLAPSSKSTSGGTAALGCLVKDYFPEPVTVSWNSGALTSGVHTFPAVLQSSGLYSLSSVVTVPSSSLGTQTYICNVNHKPSNTKVDKKV[sequence of human IgG1 Fc with Y296C N297A (EU numbers) not given]
light: DIQMTQSPSSLSASVGDRVTITCRASQDISNFLNWYQQKPGKVPKLLIYYTSNLQSGVPSRFSGSGSGTDFTLTISSLQPEDVATYYCQQYDESPPTFGQGTKLEIKRTVAAPSVFIFPPSDEQLKSGTASVVCLLNNFYPREAKVQWKVDNALQSGNSQESVTEQDSKDSTYSLSSTLTLSKADYEKHKVYACEVTHQGLSSPVTKSFNRGEC
Question: With B1 as the molecule, how does the “binding to CD33-expressing HEK-293 cells” value [1] read?
Answer: Its value is “binds specifically”.

Question: And the “binding to control HEK-293 cells” value (control HEK-293 cells)?
Answer: Its value is “not the control HEK-293 cells”.
